Hit rate of the full screen: of about 44,000 compounds, about 340 (0.77%) were called active. Another 5% or so got no clear call; they are omitted. Calls come from the whole dose curve; as a rule, active = well fitted inhibition curve with a large enough effect; inconclusive = small, poorly fitted or top-dose-only effect; inactive = flat fitted curve, though single readings scatter. The list shows a part of the results.
Assay: Acumen qHTS Assay for Inhibitors of the mTORC1 Signaling Pathway in MEF (Tsc2-/-, p53-/-) Cells: Sytravon;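 note: plate controls were DMSO for no effect and rapamycin for full effect; nearly all actives have a fitted effect of over 50% in size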
Settings: phospho-rpS6 immunofluorescence/PI, 24 h; series mostly up to 38.3 µM; activity change, negative = inhibition: at the top concentration
Procedure, shortened: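 Compounds act on Tsc2-/-, p53-/- fibroblasts carrying an empty vector for 24 h before fixation and dual staining for phospho-S6 and DNA (propidium iodide). Values are percentages of cells above a rapamycin-defined pS6/PI threshold.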

| SMILES | activity change, negative = inhibition |
| --- | --- |
| CN(C(=O)CSc1nc2ccc(NC(=O)c3ccc(F)cc3)cc2s1)c1ccccc1 | inactive: -9.99% |
| Cc1ccccc1CCNC(=O)c1cc2ccccn2n1 | inactive: 0% |
| Cc1cccc(N2CCN(C(=O)Cn3nc(C)c4sc5ccccc5c4c3=O)CC2C)c1 (stereo unspecified) | inactive: -4.62% |
| CCn1cc(C(=O)N(C)Cc2ccccc2)c(=O)c2cc(S(=O)(=O)N3CCCCC3)ccc21 | inactive: -3.24% |
| COc1ccc(-c2onc(C)c2C)cc1S(=O)(=O)NC1CCCCC1 | inactive: 0.724% |
| CCOC(=O)Cn1nc(N2CCN(c3ccc(F)cc3)CC2)ccc1=O | inactive: -0.461% |
| CCOC(=O)c1cccc(NC(=O)CCc2c(C)nc3c4cccnc4nn3c2C)c1 | inactive: -0.525% |
| COC(=O)C1=C(c2ccccc2)c2ccccc2S(=O)(=O)N1CC(=O)Nc1cc(C)ccc1C | inactive: -13% |
| Cc1ccc(CN2C(=O)C3(SCC(=O)N3c3ccc(C)c(C)c3)c3ccccc32)cc1 (stereo unspecified) | inactive: 3.01% |
| Cc1cccc(N2CCN(c3c(CN4CCCC4)c(=O)oc4ccccc34)CC2)c1C | inactive: 4.15% |
| CSc1ccc(Nc2nn(-c3ccc(OC(F)(F)F)cc3)nc2C(C)=O)cc1 | inactive: -2.18% |
| Cc1c(C(=O)N2CCOCC2)oc2c1-c1nn(CC(=O)NCc3ccccc3)cc1CC2 | inactive: 2.65% |
| Cn1c(=O)n(C)c2cc(CNCc3ccc(C(=O)O)cc3)ccc21 | inactive: -0.655% |
| CCOCCn1ccc2c(OCC(=O)Nc3cc(C(F)(F)F)ccc3Cl)cccc2c1=O | inactive: -9.23% |
| Cc1ccc2c(c1)N(CC(=O)NCc1cccc(Cl)c1)C(=O)c1cccnc1O2 | inactive: -4.73% |
| COc1ccccc1Cn1c(CNS(=O)(=O)c2c(C)cc(C)cc2C)nc2cccnc21 | inactive: -8.17% |
| Cc1ccc(-n2nc(C)c3c(C)c(CCC(=O)NCc4cccc(Cl)c4)c(C)nc32)cc1C | inactive: -1.09% |
| CC(=O)c1cccc(NC(=O)c2ccc3c(c2)CCN3S(=O)(=O)c2ccccc2)c1 | inactive: -4.44% |
| CCOCCCn1c(=N)c(S(=O)(=O)c2ccccc2)cc2c(=O)n3cc(C)ccc3nc21 | inactive: 5.08% |
| CCn1cc(S(=O)(=O)c2ccccc2)c(=O)c2cc(F)c(N3CCCCCC3)cc21 | inactive: -3.49% |
| Cc1cccc(C(=O)Nc2cc3c(cc2N2CCCCC2)n(C)c(=O)n3C)c1 | inactive: 1.06% |

| SMILES | activity change, negative = inhibition |
| --- | --- |
| CCOc1ccc(CCNC(=O)c2cc3cc4ccc(OC)cc4nc3s2)cc1OCC | inactive: -11.6% |
| O=C(CSc1c2c(nc3ccc(Cl)cc13)CCCC2)N1CCCCC1 | inactive: -6.2% |
| Cc1ccccc1OCC(=O)Nc1ccc(S(=O)(=O)Nc2ncccn2)cc1 | inactive: 10.3% |
| COc1ccc(C(=O)Oc2c(Sc3ccc(C)cc3)c(C)nn2C(C)(C)C)c(OC)c1 | inactive: 6.99% |
| COCCNC(=O)C(=O)Nc1ccc2nc3n(c(=O)c2c1)CCCCC3 | inactive: -17% |
| C=Cc1ccc(Cn2c(C(=O)O)c(CNCc3cc(OC)ccc3OC)c3ccc(C)cc32)cc1 | inactive: 1.33% |
| COc1ccc(-c2nc(C)c(CCNC(=O)c3cccc(C)c3)s2)cc1OC | inactive: -0.758% |
| COc1ccc(CCNC(=O)C(C)n2nc(C)c3sc4ccccc4c3c2=O)cc1OC (stereo unspecified) | inactive: -5.28% |
| CCOc1ccc(C2C(C(=O)Nc3ccc(C)cc3C)=C(C)Nc3c(C(=O)Nc4ccc(C)cc4)cnn32)cc1OC (stereo unspecified) | inactive: -7.5% |
| CCC12CN3CC(C)(CN(C1)C3c1c(C)[nH]c3ccccc13)C2=O (stereo unspecified) | inactive: -5.76% |
| COc1ccc(-c2nc3c(C#N)c[nH]n3c2NC2CCCCC2)cc1 | inactive: -7.47% |
| COc1ccc(C2NC(=O)N(C)C3=C2C(=O)N(c2ccccc2)C3)cc1 (stereo unspecified) | inactive: 4.14% |
| COC(=O)c1cc2sccc2n1Cc1ccc(F)cc1 | inactive: -18.8% |
| Cc1ccc(C)c(CNC(=O)C2CCCCN2S(=O)(=O)c2ccc(F)cc2)c1 (stereo unspecified) | inactive: 0% |
| CCOc1ccc(NC(=O)c2cccc(N3CCCS3(=O)=O)c2)cc1 | inactive: 4.05% |
| Cc1ccc(C)c(N2CCN(C(=O)CN3C(=O)COc4ccc(S(=O)(=O)N5CCOCC5)cc43)CC2)c1 | inactive: 1.06% |
| CCN(c1cccc(C)c1)C(CNS(=O)(=O)c1ccccc1)c1ccccc1 (stereo unspecified) | inactive: 0.312% |
| Cc1cccc(-c2cc(NC(=O)c3ccccc3C)n(-c3ccccc3)n2)c1 | inactive: 2.68% |
| CCC(=O)N1c2ccccc2CC1C(=O)NCCCN1CCN(c2ccccc2)CC1 (stereo unspecified) | inactive: 0% |
| O=C(Nc1ccc(F)c(Cl)c1)C1CCCN(c2ncnc3onc(-c4ccc(F)cc4)c23)C1 (stereo unspecified) | inactive: 1.41% |
| Cc1ccc(C)c(NC(=O)c2cc(S(=O)(=O)N3CCc4ccccc4C3)ccc2F)c1 | inactive: 7.1% |

| SMILES | activity change, negative = inhibition |
| --- | --- |
| COc1ccccc1CNC(=O)c1cc2sccc2n1Cc1ccc(F)cc1 | inactive: -27.2% |
| COc1ccc(C2C=C(c3ccc(C)cc3)Nc3c(C(=O)Nc4ccccc4)cnn32)cc1 (stereo unspecified) | inactive: -4.35% |
| COc1ccc(Br)cc1CNC(=O)CCCn1c(=O)c2cccn2c2cccnc21 | inactive: -9.3% |
| COc1ccc(-c2noc(-c3ccccc3OCC(=O)Nc3ccc(C(C)=O)cc3)n2)cc1 | inactive: 1.09% |
| O=C(Cn1ncc2c3ccccc3n(Cc3ccccc3)c2c1=O)N1CCCCCC1 | inactive: -11.7% |
| COCCCn1c(SCc2ccccc2F)nc2c(sc3ccccc32)c1=O | inactive: 1.54% |
| COc1ccccc1NC(=O)Cn1c(=O)n(-c2ccccc2Cl)c(=O)c2sc3ccccc3c21 | inactive: -14.1% |
| CCOC(=O)c1[nH]c2ccccc2c1NC(=O)c1cc(Cl)ccc1Cl | inactive: -28.9% |
| Cc1ccc(CNc2ccc(-c3nc(-c4cccnc4)no3)cc2[N+](=O)[O-])cc1 | inactive: 1.01% |
| CCN(CC)S(=O)(=O)c1ccc2c(c1)N(CC(=O)Nc1ccc(F)cc1F)C(=O)C1CCCN21 (stereo unspecified) | inactive: 3.08% |
| COc1ccc(CNC(=O)CCCCCn2c(=O)[nH]c3ccccc3c2=O)cc1 | inactive: 0.209% |
| COc1cc(NC(=O)Cn2c(C)cc(C)c(C#N)c2=O)cc(OC)c1 | inactive: 0% |
| CCOC(=O)c1[nH]c2ccccc2c1NC(=O)c1ccc(OC)c(OC)c1 | inactive: -3.65% |
| CCn1cc(C(=O)NCCc2ccc(Cl)cc2)c(=O)c2cc(S(=O)(=O)N3CCOCC3)ccc21 | inactive: -15.6% |
| Oc1cccc(-c2nc3ncccn3c2Nc2cccc(C(F)(F)F)c2)c1 | inactive: -3.92% |
| O=C(CC(c1cccs1)N1Cc2ccccc2C1=O)Nc1ccc(Cl)cc1 (stereo unspecified) | inactive: 3.39% |
| COc1ccccc1Cc1nc2ccccc2nc1SCC(=O)NCc1ccc(F)cc1 | inactive: 1.8% |
| COc1ccccc1Nc1nc2c(S(=O)(=O)c3ccc(C(C)C)cc3)nnn2c2ccsc12 | inactive: -2.8% |
| Cc1ccc2c(=O)cc(C(=O)Nc3ccc(S(=O)(=O)N4CCCCC4)cc3)oc2c1C | inactive: -9.07% |

From PubChem BioAssay AID493208 (National Center for Advancing Translational Sciences (NCATS), 2011)
